Laboratory results: PubChem BioAssay AID1671194 (National Center for Advancing Translational Sciences (NCATS), 2021)
In all, about 140,000 compounds went through this assay and about 240 (0.17%) were called active. The inconclusive results got no clear call from the source; some entries with a clear call stand among them for comparison. The call rests on the fitted dose curve; in most records, active means well fitted inhibition curve with a large enough effect; inconclusive means small, poorly fitted or top-dose-only effect; inactive means no such curve, though single readings can be large or run the other way. Potencies of inconclusive entries are doubtful fits and often do not repeat.
Potency means the concentration at half of the fitted maximal effect; tags describe the fitted curve by direction and shape.

Experiment: Primary qHTS assay for inhibitors of alpha-synuclein gene (SNCA) expression; further: nearly all actives have a fitted effect of over 45% in size
Conditions: HEK-293 SNCA-luciferase knock-in, luminescence, 24 h; series mostly up to 57.2 µM
For `Cc1cn(CCn2ccnc2-c2nc[nH]c2C)nn1`, the Potency was inconclusive: 6.31 µM [inhibitor, single point].
With `CCCNC(=O)N(C1CCOCC1)C1CCN(C(=O)Cc2cccnc2)CC1` the Potency was “inactive”.
With `CCc1nn(-c2ccc(F)cc2)c(Oc2ccccc2)c1CCC(=O)N1CCCC1` the Potency was “inactive”.
For `C=CCc1cccc2cc(C(=O)NCCc3c(C)[nH]c4c(C)cccc34)c(=O)oc12`, the Potency was inconclusive: 12.6 µM [inhibitor, partial curve, poor fit].
With `Cc1cc(=O)n(CC(=O)NCc2ccc(OC(C)C)cc2)c2c1c(C)nn2-c1cccc(F)c1` the Potency was “inactive”.
In the case of `Cc1nc2c(c(-c3ccc(Cl)cc3)n1)CCN(C(=O)Nc1ccccc1)CC2`, the Potency is reported as inconclusive: 17.8 µM [inhibitor, single point].
With `O=C1N[C@@H]2CCN(C(=O)c3ccc(-c4ccccc4)cc3)[C@@H]2C(=O)N1c1ccc(F)cc1` the Potency was “inactive”.
With `O=C(O)c1cc(Br)cc(S(=O)(=O)NCC2CCCO2)c1` (stereo not drawn) the Potency was inconclusive: 7.94 µM [inhibitor, partial curve, poor fit].
With `Cc1cnc(-c2ccccc2)n1CCNS(=O)(=O)c1ccccc1` the Potency was inconclusive: 39.8 µM [inhibitor, single point].
For `CCN1CC(C(=O)NCc2nn(C)c3cccc(Cl)c23)CC1=O` (stereo not drawn), the Potency was inconclusive: 8.91 µM [inhibitor, single point].
In the case of `COc1ccc(/C=C/C(=O)Nc2sc(C)c(C)c2C(=O)O)cc1`, the Potency is reported as inconclusive: 39.8 µM [inhibitor, single point].
With `COc1cccc(C(=O)N2CCC3(C2)C(=O)N(CCc2ccccc2)c2ccccc23)c1` (stereo not drawn) the Potency was inconclusive: 39.8 µM [inhibitor, single point].
For `O=C(CCc1nc2cccnc2n1-c1ccccc1)Nc1ccc(Cl)c(Cl)c1`, the Potency was active: 7.08 µM.
For `COCCN1C(=O)c2ccccc2C(C(=O)Nc2ccc(C)cc2Cl)C12CCCC2` (stereo not drawn), the Potency was inconclusive: 28.2 µM [inhibitor, partial curve, poor fit].
With `COc1ccc2[nH]c(=O)c(CCC(=O)NCCCN3CCCC(C)C3)cc2c1` (stereo not drawn) the Potency was inconclusive: 10 µM [inhibitor, partial curve, poor fit].
With `Cc1ccc(-c2noc([C@@H]3Cc4nc[nH]c4CN3C(=O)Nc3ccccc3)n2)cc1` the Potency was inconclusive: 1.78 µM [inhibitor, full curve, poor fit].
With `O=C(NCC1CCCCCC1)c1nc2cccnc2n(CCc2ccccc2)c1=O` the Potency was “inactive”.
With `Fc1ccc(Nc2ncnc3ccc(-c4ccoc4)cc23)cc1` the Potency was inconclusive: 39.8 µM [inhibitor, single point].
In the case of `O=C(c1ccc(F)c(F)c1)N1CCN(C(=O)c2nnn3c2COC(c2ccc(Cl)cc2)C3)CC1` (stereo not drawn), the Potency is reported as “inactive”.
With `Cc1c(C(=O)Nc2ccc(F)c(Cl)c2)oc2ccc(S(=O)(=O)N(C)C3CCCCC3)cc12` the Potency was inconclusive: 25.1 µM [inhibitor, partial curve, poor fit].
With `COCCN1CC(CNC(=O)c2cc(Cl)c(C)c(Cl)c2)CC1=O` (stereo not drawn) the Potency was inconclusive: 3.16 µM [inhibitor, single point].
With `Cc1ccc2c(c1)N(C(=O)C1CCN(S(=O)(=O)c3c(C)noc3/C=C/c3ccccc3F)CC1)CCO2` the Potency was inconclusive: 20 µM [inhibitor, single point].
For `COc1ccc(N(C(=O)c2cccc(C)c2)S(=O)(=O)c2ccc(C)cc2)cc1`, the Potency was inconclusive: 3.98 µM [inhibitor, single point].
In the case of `CC(C)Cc1cc(CNc2nc(C(C)(C)C)nc3c2cnn3C)no1`, the Potency is reported as inconclusive: 39.8 µM [inhibitor, partial curve, poor fit].
In the case of `COc1ccc(N(Cc2cccs2)C(=O)c2ccc(C(C)(C)C)cc2)cc1`, the Potency is reported as inconclusive: 12.6 µM [inhibitor, single point].
For `O=C(c1nnc(COc2ccc(F)c(F)c2)n1-c1ccccc1)N1CCC[C@@H]1C(c1ccccc1)c1ccccc1`, the Potency was inconclusive: 15.8 µM [inhibitor, partial curve, poor fit].
With `C[C@@H](CN1CC(=O)NC(=O)C1)N1CC(=O)NC(=O)C1` the Potency was inconclusive: 19.2 µM [inhibitor, partial curve, poor fit].
With `COCC1CN(C(C)=O)CC12CCN(Cc1cccc(Br)c1)CC2` (stereo not drawn) the Potency was “inactive”.
For `O=C(O)C[C@@H]1CCN(C(=O)c2cccs2)C[C@@H]1CCN1C[C@@H]2C[C@H](C1)c1cccc(=O)n1C2`, the Potency was inconclusive: 8.91 µM [inhibitor, single point].
For `COc1ccc2c(Sc3ccccc3)c(C(=O)NCCCN3CCCCC3)[nH]c2c1`, the Potency was inconclusive: 3.55 µM [inhibitor, single point].
For `Cc1cc(C)cc(NS(=O)(=O)c2ccc3[nH]cc(C(=O)N(C)Cc4ccccc4)c(=O)c3c2)c1`, the Potency was inconclusive: 31.6 µM [inhibitor, single point].
With `Cc1ccc(N2C(=O)CCSC23C(=O)N(Cc2ccccc2)c2ccccc23)cc1F` (stereo not drawn) the Potency was inconclusive: 25.1 µM [inhibitor, single point].
With `COc1cccc(CC(=O)N2CCC3(CC2)CC(Cc2nc(-c4ccncc4)no2)CCO3)c1` (stereo not drawn) the Potency was “inactive”.
For `Cc1ccc(Nc2ccnc(N3CCC(N[S+](=O)([O-])c4cccs4)CC3)n2)cc1`, the Potency was “inactive”.
In the case of `COc1ccc(S(=O)(=O)N2CCCC(Cn3cnc4cccnc43)C2)cc1OC` (stereo not drawn), the Potency is reported as inconclusive: 3.16 µM [inhibitor, single point].
In the case of `Cc1ccc(-c2ccc3nnc(CNC(=O)c4ccc(F)c(F)c4)n3n2)cc1C`, the Potency is reported as inconclusive: 25.1 µM [inhibitor, single point].
In the case of `COc1ccc(S(=O)(=O)N[C@H]2[C@H](O)[C@H](O)C[C@@H]2c2ccc(C(F)(F)F)cc2)cc1`, the Potency is reported as “inactive”.
For `COc1ccc(S(=O)(=O)NCC2CCCN(Cc3ccc(-c4ccco4)cc3)C2)cc1` (stereo not drawn), the Potency was “inactive”.
For `COc1ccc(CNC(=O)c2cc3c(N4CCSCC4)nc(C)cn3n2)cc1`, the Potency was “inactive”.
For `COc1ccc(CNC(=O)CSc2nc3ccccc3nc2Cc2ccccc2OC)cc1`, the Potency was inconclusive: 3.55 µM [inhibitor, single point].
For `COc1cccc(CN2CC(Oc3ccccc3C(=O)NCc3ccccc3)C2)c1`, the Potency was “inactive”.
With `O=c1c2c(nc3cc(-c4ccccc4)[nH]n13)CCN(S(=O)(=O)c1ccccc1Cl)C2` the Potency was inconclusive: 28.2 µM [inhibitor, single point].
With `CCCNc1cc(N2CCC(CCC(=O)Nc3ccc(C)cc3)CC2)ncn1` the Potency was inconclusive: 2.24 µM [inhibitor, full curve, poor fit].
For `Cc1cccc(CNC(=O)CSCc2cnn(-c3ccccc3)c2-n2cccc2)c1`, the Potency was inconclusive: 0.178 µM [inhibitor, full curve, poor fit].
In the case of `CC1=C(C(=O)OCc2ccccc2)C(c2cccc(Cl)c2Cl)CC(=O)N1` (stereo not drawn), the Potency is reported as inconclusive: 35.5 µM [inhibitor, partial curve, poor fit].
For `COCCCNC(=O)N1CCC(n2c(C)cnc2C2CCOCC2)CC1`, the Potency was “inactive”.
For `Cn1cnc2cc(Nc3ccc(Cl)cc3F)cc(C(=O)NCc3cccnc3)c21`, the Potency was inconclusive: 22.4 µM [inhibitor, single point].
With `COc1ccc2cc(CN3CCC(CO)CC3)c(-c3ccc(Cl)cc3)nc2c1` the Potency was inconclusive: 12.6 µM [inhibitor, partial curve, poor fit].
For `Cn1cc(-c2cc(=O)c3ccnc(NCc4ccc(F)cc4)c3o2)cn1`, the Potency was “inactive”.
In the case of `CCCNC(=O)N(C1CCOCC1)C1CCN(C(=O)c2cccc(F)c2)CC1`, the Potency is reported as inconclusive: 1.26 µM [inhibitor, full curve].
In the case of `C=CCNC(=O)Nc1nc2c(s1)C[C@]1(C)CC[C@@H]3[C@H](OC(=O)[C@H]3C)[C@H]1[C@@H]2C`, the Potency is reported as “inactive”.
In the case of `COc1cccc(-c2ccnc3nc(CCc4ccccc4)nn23)c1`, the Potency is reported as “inactive”.
With `COc1ccc(-c2noc(-c3nc(C(C)C)no3)n2)cc1` the Potency was “inactive”.
For `Cc1cc(C(=O)N2CC[C@H](NC(=O)c3snnc3C)C[C@H]2C(=O)N[C@@H](Cc2cccs2)C(N)=O)n(C)n1`, the Potency was inconclusive: 3.98 µM [inhibitor, partial curve, poor fit].
With `Cn1cccc1CN1CCCC2(C1)C(=NC1CCCCC1)NC(=O)N2c1cc(F)cc(F)c1` (stereo not drawn) the Potency was inconclusive: 10 µM [inhibitor, partial curve, poor fit].
In the case of `CCCNc1cc(N2CCC(CCC(=O)Nc3cc(C)ccc3C)CC2)ncn1`, the Potency is reported as inconclusive: 3.16 µM [inhibitor, full curve].
In the case of `COc1ccc(CN(Cc2ccco2)c2cnc(S(C)(=O)=O)nc2C(=O)Nc2ccc(C)c(Cl)c2)cc1`, the Potency is reported as inconclusive: 39.8 µM [inhibitor, single point].
With `COc1ccc(C(=O)N2CCCC3(C2)Nc2cccnc2NC3=NCc2ccccc2)cc1` (stereo not drawn) the Potency was inconclusive: 28.2 µM [inhibitor, single point].
With `CCc1ccc(NC(=O)CN2C(=O)NC3(CCOCC3)C2=O)cc1` the Potency was “inactive”.
For `Cc1ccc(C)c(N2CCN(C(=O)CCc3conc3-c3ccccc3F)CC2)c1`, the Potency was inconclusive: 3.16 µM [inhibitor, full curve].
In the case of `COCCC(=O)N1CCc2nc(N3CCN(C)CC3)sc2C1`, the Potency is reported as inconclusive: 39.8 µM [inhibitor, single point].
For `O=[S+]([O-])(NC1CCN(Cc2ccc(-c3ccsc3)cc2)C1)c1cccc(C(F)(F)F)c1` (stereo not drawn), the Potency was inconclusive: 39.8 µM [inhibitor, single point].
In the case of `CNC(c1ccccc1)c1nc(-c2cccnn2)no1` (stereo not drawn), the Potency is reported as inconclusive: 8.91 µM [inhibitor, single point].
